# Data taken from paper PMC6919601, “Identification of Plasmodium dipeptidyl aminopeptidase allosteric inhibitors by high throughput screening” (PLoS ONE, 2019).
# In all, about 110,000 compounds went through this assay and about 230 (0.21%) showed an effect of 50% or more. This is one part of the list.
# Target: DPAP1 (Plasmodium falciparum, UniProt Q8IIJ9)
# Assay: primary screen, percent inhibition; read by cleavage of a fluorogenic dipeptide substrate; higher = more effect of the substance
# Parameters: species or system P. falciparum D10 trophozoite lysates; single well
# 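Also: 30 min substrate incubation versus DMSO and 10 µM JCP410 controls.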
# DPAP1, sequence (Q8IIJ9 whole entry, looked up): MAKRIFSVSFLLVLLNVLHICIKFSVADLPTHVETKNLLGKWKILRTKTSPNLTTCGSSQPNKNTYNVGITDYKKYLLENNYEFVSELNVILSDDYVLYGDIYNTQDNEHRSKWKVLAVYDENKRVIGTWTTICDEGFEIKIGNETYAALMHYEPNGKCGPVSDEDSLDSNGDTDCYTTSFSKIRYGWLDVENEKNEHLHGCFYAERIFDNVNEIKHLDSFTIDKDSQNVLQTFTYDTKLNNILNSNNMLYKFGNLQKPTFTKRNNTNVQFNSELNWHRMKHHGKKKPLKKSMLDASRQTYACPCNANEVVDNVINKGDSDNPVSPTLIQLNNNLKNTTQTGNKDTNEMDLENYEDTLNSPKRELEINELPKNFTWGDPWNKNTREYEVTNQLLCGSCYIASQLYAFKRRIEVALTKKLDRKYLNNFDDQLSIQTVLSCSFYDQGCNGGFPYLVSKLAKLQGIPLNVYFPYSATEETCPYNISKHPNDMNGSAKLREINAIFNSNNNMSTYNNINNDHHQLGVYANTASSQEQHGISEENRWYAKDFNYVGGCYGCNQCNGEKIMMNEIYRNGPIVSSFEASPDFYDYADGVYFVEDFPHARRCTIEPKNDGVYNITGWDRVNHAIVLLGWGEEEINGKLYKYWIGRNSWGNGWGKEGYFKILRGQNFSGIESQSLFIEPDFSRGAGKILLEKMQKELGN
row,Structure (SMILES),% Inhibition @ 10 uM [%]
1,O=C(Cn1cnc2c(nnn2-c2cccc(Cl)c2)c1=O)NCC1CCCO1 (stereo not shown),-2.16
2,COc1ccc(OC)c(-n2nnc(-c3nc(-c4ccccc4)no3)c2N)c1,-1.59
3,COc1ccc(C(=O)C2=C(O)C(=O)N(c3nc(C)c(C(C)=O)s3)C2c2ccccc2)cc1 (stereo not shown),-0.425
4,CCC(C)NC(=O)c1cc(-c2ccc(Cl)s2)nc2ccccc12 (stereo not shown),-6.5
5,COc1ccccc1C(=O)Nc1ccc([S+](N)O)cc1 (stereo not shown),-1.29
6,O=C(O)C1C2CC=CC2c2cc([N+](=O)[O-])cc3c2N1CC1CC=CC31 (stereo not shown),0.345
7,COc1ccc(Cl)cc1NC(=O)CN(c1ccc2c(c1)OCCO2)S(=O)(=O)c1ccccc1,-2.32
8,COc1ccc2c(c1)c(C)c(C)n2CCC(=O)O,-0.28
9,O=C1C(N2CCCC2)=C(N2CCN(S(=O)(=O)c3ccccc3)CC2)C(=O)c2ccccc21,-1.52
10,C=CCOc1ccc(/C=c2\sc3nc(C4COc5ccccc5O4)nn3c2=O)cc1OC (stereo not shown),1.91
11,COc1cc(C2C3=C(O)CCCC3=NC(C)=C2C(=O)Nc2ccccc2C)cc(Br)c1O (stereo not shown),2.38
12,Cc1ccc(C(=O)O)cc1S(=O)(=O)Nc1cccc(F)c1,-1.96
13,COC(=O)c1cc(CN2CCOCC2)ccc1O,-0.958
14,OC1CCN(Cc2ccc(Br)s2)CC1,-1.92
15,O=C(NCCCn1ccnc1)c1ccccc1C(=O)c1ccccc1,1.37
16,COc1ccc(-c2noc(CNC(=O)CCC3CCCC3)n2)cc1,-4.82
17,O=C(NC1CCCCC1)/C(=C/c1ccc2c(c1)OCO2)NC(=O)c1ccc(Br)cc1,4.95
18,COCCCNc1ncnc2c1nc1n2CCCCC1,-2.17
19,CCOC(=O)c1c(S(=O)(=O)NCCCN2CCCC2=O)c(C)n(C)c1C,-1.77
20,CCOC(=O)c1cccnc1SC(CC)C(=O)N1CCOCC1 (stereo not shown),3.66
21,c1cc2c(cc1-c1nn3cnnc3s1)OCO2,3.88
22,Fc1ccc(NCc2ccc3c(c2)OCCO3)cc1F,-5.31
23,Cc1ccc(CNC(=O)C(C)Oc2ccccc2)c(S)n1 (stereo not shown),2.18
24,CCC(C(=O)NCCOC)n1c2ccccc2c2cnnc(O)c21 (stereo not shown),-2
25,CC(=O)Nc1ccc2c(c1)C(=O)N(c1ccc3ccccc3c1)C2=O,-7.09
26,NC(=O)c1c(NC(=O)c2cc(-c3ccc(O)cc3)on2)sc2c1CCCC2,0.723

row,Structure (SMILES),% Inhibition @ 10 uM [%]
1,CCOc1ccc(-n2nc3ccc(N)cc3n2)cc1,2.65
2,CCOC(=O)c1cnc(SCc2nc(-c3cccs3)oc2C)nc1N,1.44
3,CCOc1ccc(-c2[nH]nc3c2C(c2ccccc2F)C(C#N)=C(N)O3)c(OCC)c1 (stereo not shown),2.67
4,CC(=O)c1cn(CCCn2cc(C(C)=O)c(=O)[nH]c2=O)c(=O)[nH]c1=O,2.13
5,CCCSc1nc(O)c2cnn(-c3ccccc3)c2n1,-1.54
6,Oc1ccccc1/C=C/c1ccc2ccccc2n1,1.27
7,O=C(C1CCN(c2nnc(N3CCCC3=O)s2)CC1)N1CCN(c2ccccn2)CC1,-8.54
8,c1ccc2[nH]c(C3CCCN3)nc2c1 (stereo not shown),1.12
9,CSc1ncc(C(=O)NCCCOC(C)C)c(-c2ccccc2)n1,4.32
10,COc1cc2c(cc1OC)C(c1ccccc1)NC(C)(C)C2 (stereo not shown),-8.61
11,CC(=O)c1ccc(C(=O)N(CCCN(C)C)c2nc3c(F)cc(F)cc3s2)cc1,-3.77
12,CCOc1ccc(-c2c(C)sc3ncn(CC(=O)N4CCOCC4)c(=O)c23)cc1,-2.05
13,COc1ccc(N(CC(=O)NCc2ccc(C)cc2)S(C)(=O)=O)c(OC)c1,-5.67
14,O=C(NC1(C(F)(F)F)NC(=O)N(Cc2ccco2)C1=O)c1ccc(F)cc1 (stereo not shown),-1.52
15,CC(=O)c1cnc2c(-c3ccccc3)c(COc3ccccc3)nn2c1C,6.28
16,Cc1c(Cl)c(C(=O)NC2CCCCCC2)nn1C,0.385
17,COc1ccc(-c2nnc(-c3ccccc3)n2-c2ccccc2)cc1,-5.92
18,COc1ccc(C2C(C#N)=C(N)Oc3[nH]nc(C)c32)cc1COc1ccccc1C (stereo not shown),-0.661
19,Cc1ccc2nc(O)c(CN(C)S(C)(=O)=O)cc2c1,2.62
20,CCc1nnc(O)c2cc3cc(OC)ccc3n12,11.8
21,C=CCOC(=O)C1=C(C)N(C)C(=O)NC1c1cn(-c2ccccc2)nc1-c1ccccc1 (stereo not shown),-1.93
22,CC(C)COc1ccc(-c2nn(-c3ccccc3)cc2CO)cc1,0.0598
23,COc1c2c(nc3ccccc13)OC(C(C)(O)COC(C)=O)C2 (stereo not shown),-2.91
24,O=C(Cn1c2c(c3ccccc31)CCCC2)N1N=C(C(F)F)CC1(O)C(F)F (stereo not shown),1.03
25,Cc1ccc2nc3c(O)n(CC(=O)Nc4cccnc4Cl)ncc-3c2c1,-0.349
26,CCCC(C)N1CCN(S(=O)(=O)c2ccc(-c3cc(C(F)(F)F)no3)s2)CC1 (stereo not shown),0.00978

row,Structure (SMILES),% Inhibition @ 10 uM [%]
1,Cc1cccc(NC(=O)C2CC(=O)N(c3cccc(Cl)c3C)C2)c1C (stereo not shown),-4.14
2,CCN1CCC(NCCc2cccc(F)c2)CC1,3.19
3,CC(C)c1nnc(NC(=O)CSc2nnc3c4ccccc4n(C)c3n2)s1,6.31
4,CNC(=O)CN(c1cc(C)ccc1C)S(=O)(=O)c1ccc(C)cc1,0.00477
5,CCCOn1nnc2ccc([N+](=O)[O-])cc21,-4.58
6,Cc1cc(-c2cccc(Br)c2)c(C#N)c(N)n1,-1.5
7,CCC(=O)Nc1ccc(S(=O)(=O)Nc2nnc(CC)s2)cc1,4.42
8,COc1ccc(/C=C/C(=O)C23CC4CC(CC(C4)C2)C3)cc1,-1.97
9,O=C(CCCN1C(=O)c2ccccc2C1=O)Nc1ccccc1C(=O)NC1CCCCC1,5.12
10,COc1ccc(-n2ncc(C(=O)N3CCN(C)CC3)c2C2CCN(C(=O)OC(C)(C)C)CC2)cc1,-8.99
11,Cc1nc(NC(=O)COc2ccc(Cl)cc2)sc1C(=O)N(C)C,-1.44
12,CC(C)(C)C1CCc2c(sc3ncnc(O)c23)C1 (stereo not shown),0.161
13,COc1ccc(N(CC(=O)Nc2ccc(C(C)C)cc2)S(C)(=O)=O)cc1OC,3.66
14,Nc1nc(N2CCOCC2)ncc1F,-1.75
15,Cc1cccc(NC2=NCC(C)(C)S2)c1C,5.63
16,Cc1nc2cccnc2n1-c1ccc(C(=O)O)cc1,3.29
17,CCOc1cccc(CNC2CN3CCC2CC3)c1 (stereo not shown),1.72
18,O=C(NC1(C(F)(F)F)NC(=O)N(C2CCCCC2)C1=O)C1CC1 (stereo not shown),0.221
19,Cc1ccccc1N1C(=O)c2ccc(Oc3cccc(N)c3)cc2C1=O,-2.19
20,Cc1cccc(NC(=O)c2cccnc2)c1C,2.46
21,CN1CCN(CCNC(=O)c2ccc3nc(-c4ccc(F)cc4)c(-c4ccc(F)cc4)nc3c2)CC1,8.94
22,CN1CCN(Cc2c(F)cccc2F)CC1,-0.603
23,Cc1cc2c(n1Cc1ccccc1)C(=O)c1ccc(Br)cc1-2,1.4
24,COc1ccc(OC)c(NC(=O)COc2cccc3ccccc23)c1,-1.78
25,COC(=O)c1cc2sc(C)cc2n1Cc1ccc(C)cc1,-8.75
26,O=C(CN1C(=O)CSc2ncccc21)NCc1ccc2c(c1)OCO2,1.03

row,Structure (SMILES),% Inhibition @ 10 uM [%]
1,c1ccc(-n2nnnc2C2CCNCC2)cc1,-9.03
2,C=CCNC(=O)C1C(=O)NC2(C)CC1c1ccccc1O2 (stereo not shown),-9.6
3,Cc1ccc(NC(=O)c2ccc(F)cc2)c(C)c1,1.83
4,O=C(NCCCO)c1nnc(Cc2c(F)cccc2Cl)o1,4.95
5,CC1=C(C)/C(=N/OC(=O)c2cccc(C)c2)C=C(Br)C1=O,-0.053
6,CCOC(=O)C1=C(C)N=c2s/c(=C\c3ccc(O)c(OC)c3)c(=O)n2C1c1ccc(Cl)cc1 (stereo not shown),10.5
7,Cc1ccc(S(=O)(=O)N2CCN(CCNC(=O)C(=O)NCc3ccccc3)CC2)cc1,3.72
8,Cc1[nH]c(-c2ccc(F)cc2)cc1C(=O)NC1CCCC(C)C1C (stereo not shown),0.813
9,CCOC(=O)C1=C(CNCc2ccccc2OC)NC(=O)NC1c1ccccc1 (stereo not shown),-6.91
10,CC(C)(C)NC(=O)C1CC(c2ccc(F)cc2)=NO1 (stereo not shown),-2.16
11,Cc1sc2c(c1C)CN(CCN1CCOCC1)CN2C(=O)c1ccccc1,-7.15
12,CCCn1c(S)nc2c1c(=O)n(C)c(=O)n2C,0.275
13,Cc1ccc(C2SCC(C(=O)O)N2C(=O)c2ccc(F)cc2)cc1 (stereo not shown),-3.29
14,Cc1c(C(=O)N2CCCC2)oc2c1-c1nn(CC(=O)N3CCC(Cc4ccccc4)CC3)cc1CC2,0.335
15,CC1C2NC(=O)N(Cc3ccccc3)C1(C)Oc1ccccc12 (stereo not shown),2.17
16,O=S(=O)(NCCc1ccccc1)c1cnc(Cl)c(Br)c1,-3.25
17,CCN1CCCC1CNC(=O)c1cc(N)ccc1OC (stereo not shown),1.02
18,CC(NC(=O)c1cc2c(s1)CS(=O)(=O)C2)C12CC3CC(CC(C3)C1)C2 (stereo not shown),-3.5
19,Cc1cc(NC(=O)CN2CCCCC2)no1,2.18
20,CCCn1c2ccccc2c2cnn(CC(=O)N(CCOC)Cc3ccco3)c(=O)c21,-4.25
21,Cc1cc(O)n2nc(NC(=O)COc3ccc(Cl)cc3C)nc2n1,-3.08
22,Cc1[nH]c2ccccc2c1CCNC(=O)/C(=C/c1ccco1)NC(=O)c1cccc(Br)c1,2.18
23,CCN(CC)CCCNC(=O)c1ccc(-c2nc(CS(=O)(=O)c3ccc(C)cc3)c(C)o2)cc1,-3.86
24,Cc1ccnc(NC(=O)Cc2ccccc2F)c1,-0.0619
25,CCOC(=O)c1c(NC(=O)c2cc(-c3ccc(OC)c(OC)c3)on2)sc(C(C)=O)c1C,-0.668
